# Some of the results follow.
# Columns and labels:
# Test in all cases: glycan array binding signal (z-score within array); higher = stronger binding
# Conditions in all cases: glycan notation: IUPAC condensed, linker removed
# [1] = molecular target: Gal(a1-3)Gal(b1-3)GlcNAc
# In short: (§1)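 From the Consortium for Functional Glycomics database, 3228 arrays were curated, keeping only those whose protein sequence was available. Binding is given as a within-array Z-score averaged across arrays sharing a protein sequence and across linkers. Negative Z-scores can be read as non-binding.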
# [2] = molecular target: Gal(a1-3)Gal(b1-3)GlcNAc(b1-2)Man
# In short: as §1
# [3] = molecular target: Gal(a1-3)Gal(b1-3)GlcNAc(b1-2)Man(a1-3)[Gal(a1-3)Gal(b1-3)GlcNAc(b1-2)Man(a1-6)]Man(b1-4)GlcNAc(b1-4)GlcNAc
# In short: as §1
# [4] = molecular target: Gal(a1-3)Gal(b1-3)GlcNAc(b1-3)GalNAc
# In short: as §1
# [5] = molecular target: Gal(a1-3)Gal(b1-3)GlcNAc(b1-6)GalNAc
# In short: as §1
# [6] = molecular target: Gal(a1-3)Gal(b1-3)[Fuc(a1-4)]GlcNAc(b1-2)Man(a1-3)[Gal(a1-3)Gal(b1-3)[Fuc(a1-4)]GlcNAc(b1-2)Man(a1-6)]Man(b1-4)GlcNAc(b1-4)GlcNAc
# In short: as §1
# [7] = molecular target: Gal(a1-3)Gal(b1-4)Glc
# In short: as §1
# [8] = molecular target: Gal(a1-3)Gal(b1-4)GlcNAc
# In short: as §1
# [9] = molecular target: Gal(a1-3)Gal(b1-4)GlcNAc(b1-2)Man
# In short: as §1
# [10] = molecular target: Gal(a1-3)Gal(b1-4)GlcNAc(b1-2)Man(a1-3)[Gal(a1-3)Gal(b1-4)GlcNAc(b1-2)Man(a1-6)]Man(b1-4)GlcNAc(b1-4)GlcNAc
# In short: as §1
# [11] = molecular target: Gal(a1-3)Gal(b1-4)GlcNAc(b1-3)GalNAc
# In short: as §1
# [12] = molecular target: Gal(a1-3)Gal(b1-4)GlcNAc(b1-6)GalNAc
# In short: as §1
# [13] = molecular target: Gal(a1-3)Gal(b1-4)[Fuc(a1-3)]GlcNAc
# In short: as §1
# [14] = molecular target: Gal(a1-3)Gal(b1-4)[Fuc(a1-3)]GlcNAc(b1-2)Man(a1-3)[Gal(a1-3)Gal(b1-4)[Fuc(a1-3)]GlcNAc(b1-2)Man(a1-6)]Man(b1-4)GlcNAc(b1-4)GlcNAc
# In short: as §1
# [15] = molecular target: Gal(a1-3)GalNAc
# In short: as §1
# [16] = molecular target: Gal(a1-3)[Gal(a1-4)]Gal(b1-4)GlcNAc
# In short: as §1
# [17] = molecular target: Gal(a1-4)Gal(b1-3)GlcNAc(b1-2)Man(a1-3)[Gal(a1-4)Gal(b1-3)GlcNAc(b1-2)Man(a1-6)]Man(b1-4)GlcNAc(b1-4)GlcNAc
# In short: as §1
# [18] = molecular target: Gal(a1-4)Gal(b1-4)Glc
# In short: as §1
# [19] = molecular target: Gal(a1-4)Gal(b1-4)GlcNAc
# In short: as §1
# [20] = molecular target: Gal(a1-4)Gal(b1-4)GlcNAc(b1-2)Man(a1-3)[Gal(a1-4)Gal(b1-4)GlcNAc(b1-2)Man(a1-6)]Man(b1-4)GlcNAc(b1-4)GlcNAc
# In short: as §1
# [21] = molecular target: Gal(a1-4)Gal(b1-4)GlcNAc(b1-3)Gal(b1-4)Glc
# In short: as §1
# [22] = molecular target: Gal(a1-4)GlcNAc
# In short: as §1
# [23] = molecular target: Gal(a1-6)Glc
# In short: as §1
# [24] = molecular target: Gal(b1-2)Gal
# In short: as §1
# [25] = molecular target: Gal(b1-3)Gal
# In short: as §1
# [26] = molecular target: Gal(b1-3)Gal(b1-4)GlcNAc
# In short: as §1
# [27] = molecular target: Gal(b1-3)Gal(b1-4)GlcNAc(b1-2)Man(a1-3)[Gal(b1-3)Gal(b1-4)GlcNAc(b1-2)Man(a1-6)]Man(b1-4)GlcNAc(b1-4)GlcNAc
# In short: as §1
# [28] = molecular target: Gal(b1-3)GalNAc
# In short: as §1
# [29] = molecular target: Gal(b1-3)GalNAc(a1-3)[Fuc(a1-2)]Gal(b1-4)Glc
# In short: as §1
# [30] = molecular target: Gal(b1-3)GalNAc(a1-3)[Fuc(a1-2)]Gal(b1-4)GlcNAc
# In short: as §1
binder,measurement,setting,value
"Siglec-F (Mus musculus), Q920G3 (protein) MRWAWLLPLLWAGCLATDGYSLSVTGSVTVQEGLCVFVACQVQYPNSKGPVFGYWFREGANIFSGSPVATNDPQRSVLKEAQGRFYLMGKENSHNCSLDIRDAQKIDTGTYFFRLDGSVKYSFQKSMLSVLVIALTEVPNIQVTSTLVSGNSTKLLCSVPWACEQGTPPIFSWMSSALTSLGHRTTLSSELNLTPRPQDNGTNLTCQVNLPGTGVTVERTQQLSVIYAPQKMTIRVSWGDDTGTKVLQSGASLQIQEGESLSLVCMADSNPPAVLSWERPTQKPFQLSTPAELQLPRAELEDQGKYICQAQNSQGAQTASVSLSIRSLLQLLGPSCSFEGQGLHCSCSSRAWPAPSLRWRLGEGVLEGNSSNGSFTVKSSSAGQWANSSLILSMEFSSNHRLSCEAWSDNRVQRATILLVSGPKVSQAGKSETSRGTVLGAIWGAGLMALLAVCLCLIFFTVKVLRKKSALKVAATKGNHLAKNPASTINSASITSSNIALGYPIQGHLNEPGSQTQKEQPPLATVPDTQKDEPELHYASLSFQGPMPPKPQNTEAMKSVYTEIKIHKC",glycan array binding signal (z-score),[1],-0.111
same,glycan array binding signal (z-score),[2],-0.106
same,glycan array binding signal (z-score),[3],-0.044
same,glycan array binding signal (z-score),[4],-0.004
same,glycan array binding signal (z-score),[5],-0.127
same,glycan array binding signal (z-score),[6],0.029
same,glycan array binding signal (z-score),[7],-0.117
same,glycan array binding signal (z-score),[8],-0.12
same,glycan array binding signal (z-score),[9],-0.16
same,glycan array binding signal (z-score),[10],0.127
same,glycan array binding signal (z-score),[11],-0.073
same,glycan array binding signal (z-score),[12],-0.146
same,glycan array binding signal (z-score),[13],-0.123
same,glycan array binding signal (z-score),[14],-0.109
same,glycan array binding signal (z-score),[15],-0.12
same,glycan array binding signal (z-score),[16],0.037
same,glycan array binding signal (z-score),[17],0.083
same,glycan array binding signal (z-score),[18],-0.107
same,glycan array binding signal (z-score),[19],-0.102
same,glycan array binding signal (z-score),[20],-0.066
same,glycan array binding signal (z-score),[21],-0.118
same,glycan array binding signal (z-score),[22],-0.131
same,glycan array binding signal (z-score),[23],-0.1
same,glycan array binding signal (z-score),[24],-0.113
same,glycan array binding signal (z-score),[25],-0.118
same,glycan array binding signal (z-score),[26],-0.12
same,glycan array binding signal (z-score),[27],-0.089
same,glycan array binding signal (z-score),[28],-0.119
same,glycan array binding signal (z-score),[29],-0.128
same,glycan array binding signal (z-score),[30],-0.114

# — the supplement of paper PMC8728848
